# The whole screen tested about 39,000 compounds, of which about 220 (0.56%) showed activity. The list shows a part of the results.
# System: Escherichia coli K-12 BW25113
# Experiment: relative growth (OD600 normalised to plate interquartile mean) (fraction); higher = less growth inhibition, active = 0.2 or less
# Details: 50 µM; LB; incubation time: overnight (16-24 h)
# 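Also: static incubation at 37 °C against the wild-type strain, values averaged over two biological replicates.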
row,Structure (SMILES),relative growth
1,C[C@H](CO)N1C[C@H](C)[C@H](CN(C)C(=O)Nc2ccc(F)cc2)Oc2ccc(NS(C)(=O)=O)cc2CC1=O,inactive: 0.967
2,C[C@@H]1CCCCO[C@H](CN(C)S(=O)(=O)c2cccs2)[C@H](C)CN([C@@H](C)CO)C(=O)c2cc(NC(=O)Nc3ccc4c(c3)OCO4)ccc2O1,inactive: 1.02
3,C[C@@H]1CCCCO[C@H](CN(C)Cc2ccncc2)[C@@H](C)CN([C@@H](C)CO)C(=O)c2cc(NC(=O)Nc3ccc4c(c3)OCO4)ccc2O1,inactive: 1.01
4,NCC[C@H]1CC[C@H](NC(=O)C2CCCCC2)[C@@H](CO)O1,inactive: 0.988
5,CC(=O)N1[C@@H]2Cn3c(ccc(-c4ccccc4)c3=O)[C@H]1[C@@H](C(=O)N1CCN(C)CC1)[C@@H]2CO,inactive: 0.999
6,C[C@@H]1CN([C@H](C)CO)C(=O)c2cc(C#CC(C)(C)O)cnc2O[C@@H]1CN(C)C(=O)CN(C)C,inactive: 1.01
7,O=C(N/N=C/c1ccc(B(O)O)cc1)c1ccccn1,inactive: 0.981
8,CC(C)NC(=O)N(C)C[C@@H]1Oc2ccc(NC(=O)CCC(F)(F)F)cc2C(=O)N([C@H](C)CO)C[C@H]1C,inactive: 0.992
9,C[C@@H]1CN([C@H](C)CO)C(=O)c2cc(NS(=O)(=O)c3ccccc3)ccc2O[C@@H](C)CCCCO[C@@H]1CN(C)CC1CCCCC1,inactive: 0.961
10,CCCC(=O)O,inactive: 1.02
11,O=C1CN2CCN3CCN([C@@H](CO)[C@@H](O)CO)CCN(CC2)CC(=O)[O][Gd]([O]1)[O]C(=O)C3,inactive: 0.988
12,C[C@@H]1CN([C@H](C)CO)C(=O)Cc2cc(NS(=O)(=O)c3cccs3)ccc2O[C@H]1CN(C)S(C)(=O)=O,inactive: 1
13,C[C@@H]1CN([C@H](C)CO)C(=O)c2cccc(NC(=O)Nc3ccc(C(F)(F)F)cc3)c2O[C@@H]1CN(C)Cc1ccc(Oc2ccccc2)cc1,inactive: 1.06
14,CN(C)[C@H]1CS(=O)(=O)C[C@@H]1N(C)C,inactive: 1.05
15,C[C@H]1CN([C@@H](C)CO)C(=O)c2cccc(NS(=O)(=O)c3ccc(Cl)cc3)c2O[C@H]1CN(C)Cc1ccc(Cl)c(Cl)c1,inactive: 0.991
16,C[C@H](CO)N1C[C@H](C)[C@@H](CN(C)Cc2ccc(C(F)(F)F)cc2)OCCCC[C@H](C)Oc2ccc(NC(=O)CCC(F)(F)F)cc2C1=O,inactive: 1
17,C[C@@H]1CN([C@@H](C)CO)C(=O)c2cc(NS(=O)(=O)c3ccc(F)cc3)ccc2O[C@@H]1CN(C)Cc1ccc(Cl)c(Cl)c1,inactive: 0.987
18,O=C(C[C@H]1C[C@H]2c3cc(NC(=O)Nc4ccc(C(F)(F)F)cc4)ccc3O[C@H]2[C@H](CO)O1)NCc1cc(F)ccc1F,inactive: 1
19,COCC#Cc1cnc2c(c1)C(=O)N([C@@H](C)CO)C[C@@H](C)[C@H](CN(C)C(C)=O)O2,inactive: 0.976
20,CN1C(=O)c2cc(NS(=O)(=O)c3cccc(F)c3)ccc2OC[C@H]2O[C@H](CC(=O)NCCN3CCCCC3)CC[C@@H]21,inactive: 0.978

row,Structure (SMILES),relative growth
1,C[C@H](CO)N1C[C@H](C)[C@@H](CN(C)Cc2ccc(C(F)(F)F)cc2)OCCCC[C@H](C)Oc2ccc(NC(=O)NC3CCCCC3)cc2C1=O,inactive: 1.01
2,O=C[C@H](O)[C@@H](O)[C@H](O)[C@H](O)CO,inactive: 0.98
3,OCC1OC(OC2C(CO)OC(O)(CO)C2O)C(O)C(O)C1O (stereo not given),inactive: 1.03
4,C[C@H](CO)N1C[C@H](C)[C@H](CN(C)C(=O)CCC(F)(F)F)OCCCC[C@H](C)Oc2ccc(NS(=O)(=O)c3ccc(F)cc3)cc2C1=O,inactive: 1.03
5,C[C@H](CO)N1C[C@H](C)[C@@H](CN(C)S(=O)(=O)c2ccc(F)cc2)Oc2ccc(NS(=O)(=O)c3ccc(F)cc3)cc2C1=O,inactive: 1.01
6,CCCC#Cc1ccc2c(c1)O[C@H](CN(C)S(=O)(=O)c1cccc(F)c1)[C@H](C)CN([C@H](C)CO)S2(=O)=O,inactive: 1.01
7,CO[C@@H]1CN(C)C(=O)c2ccc(NS(C)(=O)=O)cc2OC[C@H](C)N(C(=O)c2ccc3c(c2)OCO3)C[C@H]1C,inactive: 0.972
8,CC(C)NC(=O)N(C)C[C@@H]1Oc2c(NC(=O)Nc3ccc4c(c3)OCO4)cccc2C(=O)N([C@@H](C)CO)C[C@H]1C,inactive: 0.991
9,O=C1C=C2CC3(O)COc4c(ccc(O)c4O)C3=C2C=C1O (stereo not given),inactive: 1.1
10,COc1ccc(CN(C)C[C@H]2OCCCC[C@@H](C)Oc3ccc(NS(=O)(=O)c4ccc(OC)cc4)cc3C(=O)N([C@@H](C)CO)C[C@H]2C)cc1,inactive: 1
11,COc1ccc(C[C@@H](N)C(=O)N[C@@H]2[C@@H](O)[C@@H](n3cnc4c(N(C)C)ncnc43)O[C@@H]2CO)cc1,inactive: 0.467
12,CCOC(=O)/C=C1\SC(=O)NC1=O,inactive: 1
13,COc1ccc(S(=O)(=O)N(C)C[C@@H]2OCCCC[C@@H](C)Oc3ccc(NC(=O)Nc4ccc5c(c4)OCO5)cc3C(=O)N([C@@H](C)CO)C[C@@H]2C)cc1,inactive: 1.04
14,CC(C)NC(=O)Nc1ccc2c(c1)CC(=O)N([C@@H](C)CO)C[C@@H](C)[C@H](CN(C)S(=O)(=O)c1cccs1)O2,inactive: 1.02
15,CNC[C@H]1OCCCC[C@@H](C)Oc2ccc(NC(=O)Nc3cccc4ccccc34)cc2C(=O)N([C@@H](C)CO)C[C@H]1C,inactive: 0.999
16,C[C@@H]1CCCCO[C@@H](CN(C)C(=O)Cc2ccccc2)[C@@H](C)CN([C@@H](C)CO)C(=O)c2cc(NC(=O)NC3CCCCC3)ccc2O1,inactive: 1.01
17,CCS(=O)(=O)N1C[C@]2(C1)CN([C@@H](CO)c1[nH]c3cc(ccc3c12)OC)S(=O)(=O)c1cn(cn1)C,inactive: 0.981
18,Cl.N[C@H](Cc1ccccc1)C(=O)O,inactive: 0.886
19,Cc1ccc(S(=O)(=O)N(C)C[C@@H]2Oc3ccc(NS(=O)(=O)c4cccs4)cc3CC(=O)N([C@H](C)CO)C[C@H]2C)cc1,inactive: 1
20,C[C@@H]1CN([C@H](C)CO)S(=O)(=O)c2ccc(C#C[C@@H](C)O)cc2O[C@@H]1CN(C)C(=O)CN(C)C,inactive: 0.999
